{
  "source": "paper PMC11472058",
  "about": "“Trinucleotide cap analogs with triphosphate chain modifications: synthesis, properties, and evaluation as mRNA capping reagents” (Nucleic Acids Research, 2024)",
  "key": {"[1]": {"target": "T1, T7 RNA polymerase (Escherichia phage T7, UniProt P00573)", "T1 construct": "6xHis (N); made in house; host or cells: E. coli BL21 (DE3) RIL", "T1 sequence (P00573 whole entry)": "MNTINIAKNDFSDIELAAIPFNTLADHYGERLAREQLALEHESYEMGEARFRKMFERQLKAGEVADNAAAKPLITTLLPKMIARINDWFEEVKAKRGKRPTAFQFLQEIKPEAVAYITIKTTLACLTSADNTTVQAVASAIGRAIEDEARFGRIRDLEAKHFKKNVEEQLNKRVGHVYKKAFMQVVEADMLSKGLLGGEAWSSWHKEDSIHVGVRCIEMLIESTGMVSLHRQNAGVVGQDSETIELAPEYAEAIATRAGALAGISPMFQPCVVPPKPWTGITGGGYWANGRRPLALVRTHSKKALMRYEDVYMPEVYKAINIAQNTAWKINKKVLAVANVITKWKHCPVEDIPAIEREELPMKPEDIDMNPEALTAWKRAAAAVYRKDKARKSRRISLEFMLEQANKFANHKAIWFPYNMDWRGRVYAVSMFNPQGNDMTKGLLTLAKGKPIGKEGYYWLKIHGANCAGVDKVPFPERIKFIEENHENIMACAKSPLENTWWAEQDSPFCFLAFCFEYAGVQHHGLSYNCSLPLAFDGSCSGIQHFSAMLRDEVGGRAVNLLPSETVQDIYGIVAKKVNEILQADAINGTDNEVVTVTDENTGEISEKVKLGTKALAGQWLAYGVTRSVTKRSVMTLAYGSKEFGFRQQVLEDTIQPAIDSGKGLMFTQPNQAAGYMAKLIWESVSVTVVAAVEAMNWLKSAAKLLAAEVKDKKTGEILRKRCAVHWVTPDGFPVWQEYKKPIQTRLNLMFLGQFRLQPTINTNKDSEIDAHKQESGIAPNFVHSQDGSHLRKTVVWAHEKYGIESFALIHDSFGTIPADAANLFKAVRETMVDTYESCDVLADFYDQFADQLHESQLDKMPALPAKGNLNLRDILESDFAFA", "parameters": "method as in Sikorski et al. ([12])", "conditions": "reference trinucleotides; ref Sikorski et al. ([12]); cited from earlier work"}, "[2]": {"target": "T2, human eIF4E1a (Homo sapiens, UniProt P06730)", "T2 construct": "made in house; host or cells: E. coli Rosetta 2 (DE3)pLysS", "T2 sequence (P06730 whole entry)": "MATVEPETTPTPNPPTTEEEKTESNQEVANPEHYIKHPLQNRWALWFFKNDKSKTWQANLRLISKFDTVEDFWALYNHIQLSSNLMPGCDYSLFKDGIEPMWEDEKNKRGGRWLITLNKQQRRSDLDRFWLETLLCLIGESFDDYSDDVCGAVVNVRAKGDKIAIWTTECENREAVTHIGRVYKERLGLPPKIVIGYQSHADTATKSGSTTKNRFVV", "test": "Fluorescence quenching titration (FQT) binding assay with eIF4E", "conditions": "20 °C, pH 7.2, average of triplicates ± SD, read-out: heIF4E1a KD", "protocol": "The human eIF4E1a protein was expressed without affinity tag in E. coli Rosseta 2 (DE3)pLysS strain (Novagen) under conditions leading to accumulation of the produced protein in inclusion bodies ([48]). The protein was extracted from inclusion bodies with buffer containing 6 M guanidine hydrochloride, refolded by one-step dialysis against 50 mM HEPES/KOH (pH 7.2), 100 mM KCl, 0.5 mM EDTA, 2 mM DTT, and purified by ion exchange chromatography on HiTrap SP HP 5 ml column (GE Healthcare) using salts gradient. Finally, protein was filtered using Ultrafree MC-HV Centrifugal PVDF filters with 0.45 μm membrane pore (Millipore) to remove protein aggregates and its concentration was determined spectrophotometrically assuming the theoretical extinction coefficient ϵ280nm = 52 940 L mol^−1cm^−1—calculated from amino acid composition using algorithm on ExPASy Server.\nFluorescence titration measurements were carried out on a LS-55 spectrofluorometer (Perkin Elmer Co., Norwalk, CT, USA) in a quartz semi-micro cuvette (Hellma, Germany) with optical lengths 4 mm and 10 mm for absorption and emission, respectively, which was thermostated at 20.0 ± 0.2 °C. The titrations were performed in 50 mM Hepes/KOH pH 7.2, 100 mM KCl, 0.5 mM EDTA and 1 mM DTT by adding 1 μl aliquots of increasing concentrations of the cap solutions to 1.4 ml of 0.1 μM eIF4E1a solution. The eIF4E1a fluorescence was excited at 280 nm and the fluorescence intensity was monitored at a single wavelength 340 nm. The measured fluorescence intensities were corrected for dilution (<4%) and for the inner filter effect. Association equilibrium constants (Kas) were obtained by fitting the theoretical curve for fluorescence intensity (F) upon total concentration of cap analogs ([L]) to the titration data according to the equation: […]\nwith the concentration of the cap analogs–eIF4E1a complex [cx] given by:\nwhere Δϕ stands for the difference between the fluorescence efficiencies of the apo- and cap analog bound proteins; ϕlig-free is the fluorescence efficiency of the free cap analog; F(0) is the initial fluorescence, and Pact is the total concentration of the active protein ([49]). The final KAS values were calculated as a weighted average from three independent titrations and represented as the KD values. Numerical least-squares nonlinear regression analysis was performed using ORIGIN 2021 from Microcal Software Inc., USA.\nRecognition of the mRNA 5′ cap by translation initiation factor 4E (eIF4E) is considered to be the rate-limiting step for the entire translation process ([63],[64]), therefore we investigated the affinity of novel trinucleotide cap analogs to the canonical human eIF4E1a protein by fluorescence quenching titration (FQT; Table 1 column 1, Figure 3) ([65]). As a reference, we determined the dissociation constant between heIF4E1a and the trinucleotide cap-1 structure m^7GpppAmpG, which was equal to 42 nM and very close to the analogous value previously determined for mouse Δ27NeIF4E (46 nM) ([12]). In the case of all modifications tested, the KD values for cap-heIF4E1a complexes are consistent with the results previously obtained for dinucleotide counterparts and murine eIF4E protein, although the magnitude of the modification effect is generally lower. The most tightly bound tetraphosphate analogs (compounds 10–12) show KD values of 6–7 nM, which means that their affinity is about 6-fold higher compared to the triphosphate counterparts. The affinities decrease upon CH2 or CCl2 modification of the tetraphosphate bridge (compounds 13–16), but they are still 4–5 times higher than for the triphosphate analogs with the same adenosine methylation pattern."}, "[3]": {"tested_on": "JAWS II cells", "conditions": "JAWS II cell line, GLuc mRNA"}, "[4]": {"tested_on": "A549 cells", "conditions": "A549 cell line, GLuc mRNA"}, "[5]": {"target": "mouse Δ27NeIF4E", "parameters": "method as in PMID 31984425", "conditions": "previously determined, read-out: dissociation constant (KD); cited from earlier work"}, "[6]": {"target": "T1, T7 RNA polymerase", "test": "Capping efficiency of short RNA in in vitro transcription (co-transcriptional capping)", "assay_type": "biochemical", "conditions": "short RNA (27 nt after trimming), Φ6.5 promoter, densitometry of PAGE; average of triplicates ± SD"}, "[7]": {"target": "T3, Human Dcp2 (Homo sapiens, UniProt Q8IU60)", "T3 construct": "made in house; host or cells: E. coli", "test": "RNA decapping assay with recombinant hDcp2", "assay_type": "biochemical", "conditions": "fraction of decapped RNA after 30 min of incubation with hDcp2, 27-nt RNA capped with the analog, 37 °C; triplicates ± SD", "protocol": "Human Dcp2 was expressed in E. coli and purified as described previously ([52]). Short 27 nt-capped RNAs (24.2 ng) were diluted with decapping buffer (50 mM Tris–HCl pH 8.0, 50 mM NH4Cl, 0.01% NP-40, 1 mM DTT, 5 mM MgCl2 and 2 mM MnCl2; 2.9 μl of freshly prepared 10 × Buffer) and the final volume was adjusted to 29 μl with ultrapure RNase free water. 4.2 ng (5 μl) of the solution was taken out as time zero reference and diluted with 5 μl loading dye (5 M urea, 44% formamide, 20 mM EDTA, 0.03% bromophenol blue, 0.03% xylene cyanol). The remaining RNAs (20 ng/24 μl) were subjected to 10 nM hDcp2 (250 nM, 1 μl) and the mixtures were incubated at 37°C for 1 h. At defined time points (5, 15, 30 and 60 min), 4 ng of RNA (5 μl) were taken out and the reactions were quenched by adding an equal volume of loading dye. RNAs were resolved electrophoretically on denaturing 15% acrylamide:bisacrylamide 19:1/7 M urea/1 × TBE gel, stained with SYBR Gold (Invitrogen) and visualized using a Typhoon FLA 9500 (GE Healthcare). The decapping progress was determined for each time point by densitometry analysis of the gels, as a ratio between the intensity of the band corresponding to capped RNA and the sum of the intensity of bands from capped and uncapped RNAs. The percentages of remaining capped RNA were then plotted as a function of time.\nThe RNAs used to determine the capping efficiencies were also useful to study the susceptibility of capped RNA to decapping by hDcp2, the catalytic subunit of the major human mRNA decapping complex Dcp1/Dcp2, which releases m^7GDP and 5′-monophosphorylated RNA (in this case the 26-nt pApG-RNA24; Figure 4C). The progress of decapping at different time points (5, 15, 30 and 60 min) was monitored by HR-PAGE followed by densitometric analysis of the gels (Figure 4C, triplicates of gels are shown in Supplementary Figure S2), and the fraction of remaining capped RNA (27-nt) was plotted as a function of time (Figure 4D-G). […] For better visualization, the data of modified capped RNAs were grouped according to the type of modification present at the 5′ end and presented in separate graphs (Figure 4E–G). To quantify the relative susceptibility to hDcp2, we compared the decapping levels at the 30 min time point (Table 1). For RNAs capped with β-S-triphosphate analogs (1–6, Figure 4E, Table 1), we observed a significant difference in susceptibility to hDcp2 between RP and SP isomers, independent of the methylation pattern."}},
  "note": "Read-outs that look alike come from different tables or passages of the source. Marks after values point to notes of the source that are not given here.",
  "data": [
    {"compound": "m^7Gppp^m6AmpG [reference compound]", "values": [
      {"measurement": "Capping efficiency", "setting": "[1]", "value": 75, "unit": "% ^c"},
      {"measurement": "Kd", "setting": "[2]", "value": "46.4 ± 0.6", "unit": "nM"}
    ]},
    {"compound": "m^7GpppApG [reference compound]", "values": [
      {"measurement": "Capping efficiency", "setting": "[1]", "value": 88, "unit": "% ^c"},
      {"measurement": "Kd", "setting": "[2]", "value": "35.5 ± 1.7", "unit": "nM"}
    ]},
    {"compound": "CO[C@@H]1[C@H](OP(=O)(O)OC[C@H]2O[C@@H](n3cnc4c(=O)[nH]c(N)nc43)[C@H](O)[C@@H]2O)[C@@H](COP(=O)(O)OP(=O)([O-])OP(=O)(O)OC[C@H]2O[C@@H](n3c[n+](C)c4c(O)nc(N)nc43)[C@H](O)[C@@H]2O)O[C@H]1n1cnc2c(N)ncnc21", "note": "[m^7GpppAmpG, reference compound]", "values": [
      {"measurement": "fold more protein than ARCA-capped RNA", "setting": "[3]", "value": "approximately 4 fold"},
      {"measurement": "Capping efficiency", "setting": "[1]", "value": 90, "unit": "% ^c"},
      {"measurement": "fold more protein than ARCA-capped RNA", "setting": "[4]", "value": "approximately 2 fold"},
      {"measurement": "Kd", "setting": "[2]", "value": 42, "unit": "nM"},
      {"measurement": "Kd", "setting": "[5]", "value": 46, "unit": "nM"}
    ]},
    {"compound": "C[n+]1cn([C@@H]2O[C@H](COP(=O)(O)OP(=O)(O)C(Cl)(Cl)P(=O)([O-])OP(=O)(O)OC[C@H]3O[C@@H](n4cnc5c(N)ncnc54)[C@H](O)[C@@H]3OP(=O)(O)OC[C@H]3O[C@@H](n4cnc5c(=O)[nH]c(N)nc54)[C@H](O)[C@@H]3O)[C@@H](O)[C@H]2O)c2nc(N)nc(O)c21", "note": "[Compound 13, m^7GppCCl2ppApG]", "values": [
      {"measurement": "Capping efficiency", "setting": "[6]", "value": "89 ± 5", "unit": "%"},
      {"measurement": "Kd", "setting": "[2]", "value": "6.8 ± 0.2", "unit": "nM"},
      {"measurement": "Susceptibility to hDcp2 (@30 min)", "setting": "[7]", "value": "0.03 ± 0.02"}
    ]},
    {"compound": "C[n+]1cn([C@@H]2O[C@H](COP(=O)(O)OP(=O)(O)OP(=O)([O-])OP(=O)(O)OC[C@H]3O[C@@H](n4cnc5c(N)ncnc54)[C@H](O)[C@@H]3OP(=O)(O)OC[C@H]3O[C@@H](n4cnc5c(=O)[nH]c(N)nc54)[C@H](O)[C@@H]3O)[C@@H](O)[C@H]2O)c2nc(N)nc(O)c21", "note": "[Compound 10, m^7GppppApG]", "values": [
      {"measurement": "Capping efficiency", "setting": "[6]", "value": "86 ± 2", "unit": "%"},
      {"measurement": "Kd", "setting": "[2]", "value": "5.9 ± 0.2", "unit": "nM"},
      {"measurement": "Susceptibility to hDcp2 (@30 min)", "setting": "[7]", "value": "0.65 ± 0.09"}
    ]},
    {"compound": "CNc1ncnc2c1ncn2[C@@H]1O[C@H](COP(=O)(O)OP(=O)([O-])OP(=O)(O)OP(=O)(O)OC[C@H]2O[C@@H](n3c[n+](C)c4c(O)nc(N)nc43)[C@H](O)[C@@H]2O)[C@@H](OP(=O)(O)OC[C@H]2O[C@@H](n3cnc4c(=O)[nH]c(N)nc43)[C@H](O)[C@@H]2O)[C@H]1OC", "note": "[Compound 12, m^7Gpppp^m6AmpG]", "values": [
      {"measurement": "Capping efficiency", "setting": "[6]", "value": "65 ± 15", "unit": "%"},
      {"measurement": "Kd", "setting": "[2]", "value": "7.3 ± 0.3", "unit": "nM"},
      {"measurement": "Susceptibility to hDcp2 (@30 min)", "setting": "[7]", "value": "0.40 ± 0.11"}
    ]}
  ]
}
